{"source": "PubChem BioAssay AID1476", "about": "(National Center for Advancing Translational Sciences (NCATS), 2009)", "note": "About 4,500 (2.2%) of roughly 200,000 compounds were called active. The shares of active, inactive and inconclusive entries below differ from those in the screen. Calls come from the whole dose curve; as a rule, active = well fitted inhibition curve with a large enough effect; inconclusive = small, poorly fitted or top-dose-only effect, or effect the other way; inactive = flat fitted curve, though single readings scatter. Where the call is inconclusive, the potency comes from a doubtful curve fit. Some structures have more than one record in an assay (separate samples or runs), and their calls can disagree. Potency is the fitted concentration of half-maximal effect; tags give direction and shape of the fitted curve."}
{"molecular_target": "Cruzipain (Trypanosoma cruzi) (UniProt P25779)", "sequence (P25779 whole entry, looked up)": "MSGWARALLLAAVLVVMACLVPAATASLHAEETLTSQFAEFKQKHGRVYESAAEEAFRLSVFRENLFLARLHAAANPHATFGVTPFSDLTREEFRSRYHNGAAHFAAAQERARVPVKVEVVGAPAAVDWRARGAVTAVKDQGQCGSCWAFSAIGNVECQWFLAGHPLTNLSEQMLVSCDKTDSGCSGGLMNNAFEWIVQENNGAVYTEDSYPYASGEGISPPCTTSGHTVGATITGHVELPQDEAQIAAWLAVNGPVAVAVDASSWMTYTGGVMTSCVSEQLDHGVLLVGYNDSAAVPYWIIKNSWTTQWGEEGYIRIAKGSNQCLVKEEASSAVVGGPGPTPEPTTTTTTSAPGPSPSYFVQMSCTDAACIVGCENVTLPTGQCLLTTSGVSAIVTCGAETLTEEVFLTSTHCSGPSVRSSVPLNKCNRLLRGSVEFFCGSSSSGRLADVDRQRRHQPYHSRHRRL", "assay": "qHTS Assay for Promiscuous and Specific Inhibitors of Cruzain (without detergent); note: nearly all actives have a fitted effect of over 40% in size;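 for max response, negative = inhibition: plate controls were enzyme without inhibitor for no effect and buffer without enzyme for full effect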", "conditions": "purified cruzain, Z-FR-AMC fluorescence, no detergent", "how_it_was_run": "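Purified cruzain at 1.5 nM, pre-incubated 15 min with compound at room temperature in 100 mM sodium acetate pH 5.5, 5 mM DTT, 0.00005% Triton X-100. Reaction started with 2 uM Z-FR-AMC; AMC fluorescence increase over 60 s gives rate.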"}
{"smiles": "CCOc1ccc(-c2cc(C(=O)NCc3ccccc3)c3c(-c4ccc(CC)cc4)[nH]nc3n2)cc1", "max response, negative = inhibition": "inactive: 4.08%"}
{"smiles": "O=S(=O)(c1ccc(Cl)cc1)N1CCN(C(=S)Nc2ccc(F)c(Cl)c2)CC1", "Potency": "inconclusive: 39.8 µM [inhibitor, single point]"}
{"smiles": "Cc1ccc2nc(N3CCN(c4cccc(C)c4C)CC3)c3nnnn3c2c1", "Potency": "active: 3.98 µM", "max response, negative = inhibition": "inactive: -12.9%"}
{"smiles": "O=C1c2ccc(Oc3ccc4c(c3)C(=O)N(CCCCO)C4=O)cc2C(=O)N1CCCCO", "Potency": "inconclusive: 39.8 µM [activator, single point]"}
{"smiles": "COc1ccc(OCCOCCOc2ccc(C)cc2[N+](=O)[O-])cc1", "max response, negative = inhibition": "inactive: -2.05%"}
{"smiles": "COCCc1nn2c(=O)cc(COC(=O)c3ccc(C(C)(C)C)cc3)nc2s1", "Potency": "inconclusive: 25.1 µM [activator, single point]"}
{"smiles": "O=c1nc2s/c(=C\\c3ccco3)c(=O)n2nc1Cc1ccccc1", "Potency": "active: 25.1 µM"}
{"smiles": "CN(C)c1ccc(C(CNS(=O)(=O)c2ccc(Br)cc2)N2CCOCC2)cc1", "note": "(centres undefined)", "max response, negative = inhibition": "inactive: 16%"}
{"smiles": "Cc1cc(N2CCN(C(c3ccccc3)c3ccc(Cl)cc3)CC2)n2ncnc2n1", "note": "(centres undefined)", "Potency": "inconclusive: 39.8 µM [activator, single point]"}
{"smiles": "O=c1c2c3c(sc2n2cnnc2n1CCc1ccccc1)CCCC3", "Potency": "inconclusive: 31.6 µM [activator, single point]"}
{"smiles": "Fc1ccccc1-n1[nH]nnc1=S", "Potency": "active: 12.6 µM"}
{"smiles": "Cc1ccc(C)c(S(=O)(=O)c2nnn3c2nc(NCc2ccc4c(c2)OCO4)c2sccc23)c1", "Potency": "inconclusive: 31.6 µM [inhibitor, single point]"}
{"smiles": "CCNc1nc(NC(C)C)nc(Oc2ccc(OCCOc3ccc(C)cc3)nn2)n1", "Potency": "inconclusive: 31.6 µM [activator, single point]"}
{"smiles": "COc1cc(OC)cc(C(=O)Nc2cccc(N3CCCC3)c2)c1", "Potency": "inconclusive: 39.8 µM [inhibitor, single point]"}
{"smiles": "CC(C)(C)OC(=O)N1CCC(c2c(C(=O)NCc3ccco3)cnn2-c2ccc(F)cc2)CC1", "Potency": "inconclusive: 39.8 µM [activator, single point]"}
{"smiles": "O=C(CSc1nnc(-c2ccncc2)n1Cc1ccco1)Nc1nc(-c2ccccc2)cs1", "Potency": "inconclusive: 39.8 µM [inhibitor, single point]"}
{"smiles": "Cc1ccccc1Nc1nc(-c2sc(NC(=O)c3ccco3)nc2C)cs1", "Potency": "inconclusive: 31.6 µM [inhibitor, single point]"}
{"smiles": "C(=C\\c1ccccc1)/C=N/Nc1nc(N2CCCCC2)nc(N2CCCCC2)n1", "Potency": "active: 3.98 µM"}
{"smiles": "CCCCNC(=O)c1c[nH]c2ccc(S(=O)(=O)Nc3ccc(OCC)cc3)cc2c1=O", "Potency": "inconclusive: 39.8 µM [activator, single point]"}
{"smiles": "Cc1cccc(CNc2ncncc2-c2ccccc2C(F)(F)F)c1", "max response, negative = inhibition": "inactive: -5.41%"}
{"smiles": "CCOC(=O)/C=C/C(=O)OCC(=O)NC(c1ccccc1)c1ccccc1", "Potency": "inconclusive: 39.8 µM [activator, single point]"}
{"smiles": "Oc1ccc(Br)cc1-c1cc(-c2ccccc2F)[nH]n1", "Potency": "active: 20 µM"}
{"smiles": "CCOC(=O)c1ccccc1NC(=O)Cn1c(=O)n(Cc2ccccc2)c(=O)c2c(C)c(C)sc21", "Potency": "inconclusive: 39.8 µM [inhibitor, single point]"}
{"smiles": "O=S(=O)(c1cccc(Cl)c1)c1nnn2c1nc(NC1CCCCCC1)c1sccc12", "Potency": "inconclusive: 6.31 µM [activator, single point]"}
{"smiles": "CN(C)S(=O)(=O)c1cccc(NC(=O)c2cc(-c3cccs3)nc3ccccc23)c1", "Potency": "active: 15.8 µM"}
{"smiles": "O=C(Nc1ccc2c(c1)N(C1CCCC1)C(=O)c1ccccc1S2)c1ccc(F)cc1", "Potency": "inconclusive: 10 µM [inhibitor, single point]"}
{"smiles": "C=Cc1ccc(Cn2c(=O)n(-c3cccc(C)c3)c(=O)c3c2c2cc(C)ccc2n3C)cc1", "Potency": "active: 25.1 µM"}
{"smiles": "O=S(=O)(Nc1cccc(-c2ccc(N3CCCCC3)nn2)c1)c1ccc(Cl)s1", "Potency": "inconclusive: 39.8 µM [inhibitor, single point]"}
{"smiles": "C#CCOCCOCCOCCNc1nc(N2CCN(C(=O)Cn3cc(CCCCN)nn3)CC2)nc(N2CCN(C(=O)[C@H](C(C)C)n3cc(CCO)nn3)CC2)n1", "Potency": "inconclusive: 39.8 µM [activator, single point]"}
{"smiles": "COc1ccc(C(=O)N/N=C/c2ccc(OC(=O)c3cccs3)cc2)cc1", "Potency": "inconclusive: 39.8 µM [inhibitor, single point]"}
{"smiles": "N#CNC(=Nc1cccc(F)c1)SCc1cccc(F)c1", "Potency": "inconclusive: 39.8 µM [inhibitor, single point]"}
{"smiles": "Cc1cc2cc(CNC(=O)c3ccc(S(=O)(=O)N(C)C)cc3)ccc2n1C", "max response, negative = inhibition": "inactive: -22.9%"}
{"smiles": "Cc1c(C(=O)N(C)c2cccc(C(F)(F)F)c2)sc2nc3n(c(=O)c12)CCCCC3", "Potency": "inconclusive: 39.8 µM [activator, single point]"}
